Experimental data taken from the supplement of paper PMC3334620.
The full ranking holds about 33,000 sequences; the median of “E-score (-0.5 to 0.5)” is about -0.043, and the highest 2% start at about 0.37. The list shows a part of the results.

Each sequence was assayed against T1, Upc2 (UniProt Q12151) (assay: PBM E-score (8-mer binding enrichment) (E-score (-0.5 to 0.5)); higher = stronger / more preferred TF binding; most listed sequences are background and not binding sites). Details: protein concentration: 200 nM; construct: GST-full length.
T1 sequence: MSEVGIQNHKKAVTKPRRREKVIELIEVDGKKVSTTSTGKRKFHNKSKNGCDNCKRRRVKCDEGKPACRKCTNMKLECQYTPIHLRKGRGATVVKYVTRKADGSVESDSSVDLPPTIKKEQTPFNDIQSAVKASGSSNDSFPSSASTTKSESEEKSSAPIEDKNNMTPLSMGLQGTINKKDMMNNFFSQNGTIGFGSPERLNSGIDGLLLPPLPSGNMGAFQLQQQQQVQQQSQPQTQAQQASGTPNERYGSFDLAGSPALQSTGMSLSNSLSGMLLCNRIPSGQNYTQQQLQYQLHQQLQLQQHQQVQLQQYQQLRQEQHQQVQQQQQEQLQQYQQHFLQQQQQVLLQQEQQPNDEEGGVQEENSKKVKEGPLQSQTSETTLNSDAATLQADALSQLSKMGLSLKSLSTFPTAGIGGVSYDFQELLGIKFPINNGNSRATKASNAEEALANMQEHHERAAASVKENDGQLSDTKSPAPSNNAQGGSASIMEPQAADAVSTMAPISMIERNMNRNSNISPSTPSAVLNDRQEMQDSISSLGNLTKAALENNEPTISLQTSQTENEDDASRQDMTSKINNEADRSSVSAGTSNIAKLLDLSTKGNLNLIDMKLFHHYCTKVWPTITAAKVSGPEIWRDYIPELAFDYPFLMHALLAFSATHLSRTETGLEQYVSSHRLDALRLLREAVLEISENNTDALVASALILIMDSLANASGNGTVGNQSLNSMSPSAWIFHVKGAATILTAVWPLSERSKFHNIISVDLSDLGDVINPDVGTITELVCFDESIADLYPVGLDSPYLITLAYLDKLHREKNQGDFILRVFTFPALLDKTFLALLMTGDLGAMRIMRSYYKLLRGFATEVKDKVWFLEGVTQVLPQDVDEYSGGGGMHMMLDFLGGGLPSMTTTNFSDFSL
Procedure: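 Universal 'all 10-mer' protein binding microarrays (Agilent AMADID 015681) probed with GST-tagged S. cerevisiae TFs (full-length or DBD) made by in vitro transcription/translation (PURExpress), about 100-200 nM. Bound TF was detected with fluorescent anti-GST. Each ungapped 8-mer (which stands for itself and its reverse complement) is scored by the PBM enrichment score (E-score), a modified Wilcoxon-Mann-Whitney statistic from -0.5 to +0.5, computed with the Universal PBM Analysis Suite. Scale: above 0.35 generally sequence-specific binding.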

Sequence | PBM E-score
AGTCTTAT | 0.00819
AGTTTACG | 0.348
CTACGCAA | 0.0175
CCTAGCAG | -0.327
TAGAAAAA | -0.0194
AACTATGA | -0.204
GAACGTCC | 0.0305
CCATCGAC | -0.247
ATGGTAAC | 0.188
AGGATAAC | -0.0421
ATCGATAC | 0.129
AGGCCATA | -0.199
ACTTAGTG | -0.168
AGTGATGG | -0.165
CACCTGGG | -0.341
AGCCACGA | -0.17
CAACGGCA | -0.0468
GGCAGTTA | -0.21
GATCGCAA | 0.136
GCCACGTA | 0.204
GGGAAATA | -0.187
CTATCTGC | -0.16
CCCGCAGC | -0.0149
GACAGATA | 0.0867

Sequence | PBM E-score
GTCATTAA | 0.0956
CAGCTACG | 0.213
CATGCTTC | -0.039
CGCGGTCC | -0.0823
AAATGAAC | 0.118
CGAGCAAA | 0.162
AAACCGCG | 0.00306
CCGAGATA | 0.148
GGCCAGAA | -0.124
CGCTTCGA | -0.123
CAGACGAA | 0.178
ACAACAAA | 0.159
CCTCGGCA | 0.0819
CTCTGGAA | 0.0952
ACTACTTA | 0.0816
TCCCGGGA | -0.22
GCGAGGAC | -0.102
CGACGGAA | 0.172
GTCACAAC | 0.123
AGTTCATA | -0.0563
CTTGCTTC | -0.154
AAGCACCG | -0.075
ATAGGGAT | -0.0755
CACTGGAC | -0.0285

Sequence | PBM E-score
GCGCCTGA | -0.205
AACGCGCG | 0.265
CTCCGGAC | -0.0881
ACCGAGGC | 0.0743
GACGGTCA | -0.176
GGTCTCGA | 0.0263
ATGGAAAT | -0.0479
GGCAGCGA | -0.275
GGGATACA | -0.319
CCCCTAGA | -0.327
AGAAATCA | -0.0917
CCACACAC | -0.148
TAACGCAA | 0.0914
CCGCGTAG | -0.135
GCTAAGCC | -0.164
GTGCCATA | -0.0165
GATGATGC | -0.107
CCGTCCAG | 0.0277
AAGAGTGG | -0.0326
GATCCCCC | -0.222
GGAACCAA | -0.0542
GGATACTA | -0.183
ACACAGGC | -0.0476
GAACGTTA | 0.166

Sequence | PBM E-score
CTCCCCAA | -0.145
AATTATTA | 0.102
CTCCTCAA | -0.18
CGCTAGCC | -0.254
GTTCCCAA | 0.161
CCGATATA | 0.12
ACGTCTAA | -0.0583
CCTTTTCG | 0.205
ATCTAAAG | -0.117
AGTTGCCG | -0.0348
CCGTTCAG | 0.365
CTTAGGCC | -0.221
CACGGTAA | -0.0737
CATTACGG | -0.0286
GGTCTAGA | 0.188
GCGCATAC | 0.205
CGCAACAC | -0.0123
GCGCAACC | -0.187
CTCGACAC | -0.0456
CTATTGGA | -0.13
CTAGGGAA | -0.179
CCCAGTTA | -0.116
